From patent US20100260668A1 (published 2010)
Blank lines part the entries; values can stand above or below the binder they belong to.

Experiments:
[1] = biological target: biotin-labeled human IGF1 (human, UniProt P05019 part only, biotin-labeled); assay: capture ELISA, DVD-Ig captured by anti-human Fc, biotin-labeled IGF1; N-terminal VD
[2] = biological target: biotin-labeled human IGF2 (human, UniProt P01344 part only, biotin-labeled); assay: capture ELISA, DVD-Ig captured by anti-human Fc, biotin-labeled IGF2; N-terminal VD
[3] = biological target: T1, NRP1 (UniProt O14786 22-923, limits assumed); assay: flow cytometry on cells carrying the target, 2 ug/mL; N-terminal VD
T1 construct: whole, on cells; also called neuropilin 1

[4] = biological target: T2, biotinylated VEGF (UniProt P15692-4 27-191, limits assumed, biotinylated); assay: capture ELISA, DVD-Ig captured by anti-human Fc, biotinylated VEGF; C-terminal VD
T2 sequence (looked up): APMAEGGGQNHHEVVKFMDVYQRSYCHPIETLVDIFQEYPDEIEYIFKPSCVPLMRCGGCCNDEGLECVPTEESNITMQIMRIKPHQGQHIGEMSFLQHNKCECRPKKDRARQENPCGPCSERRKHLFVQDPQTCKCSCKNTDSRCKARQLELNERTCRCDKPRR

[5] = biological target: T3, biotin-labeled human DLL4 extracellular domain (human, UniProt Q9NR61 part only, biotin-labeled); assay: capture ELISA, DVD-Ig captured by anti-human Fc, biotin-labeled human DLL4 ECD; N-terminal VD
T3 construct: extracellular domain

[6] = biological target: T4, PlGF (UniProt P49763-2 21-149, limits assumed); assay: direct bind ELISA, antigen on plate; C-terminal VD
T4 construct: Bought antigen coated on the ELISA plate; also called Placental GF; placental growth factor
T4 sequence (looked up): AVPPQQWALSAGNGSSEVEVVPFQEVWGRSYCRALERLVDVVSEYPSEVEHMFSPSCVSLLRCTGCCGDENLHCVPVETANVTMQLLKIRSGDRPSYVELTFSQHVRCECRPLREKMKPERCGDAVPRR

[7] = biological target: T5, VEGF (UniProt P15692 27-191, limits assumed); assay: direct bind ELISA, antigen on plate; N-terminal VD
T5 construct: Bought antigen coated on the ELISA plate; also called vascular endothelial growth factor
T5 sequence (looked up): T2 sequence (looked up)

[8] = biological target: T2, biotinylated VEGF; assay: capture ELISA, DVD-Ig captured by anti-human Fc, biotinylated VEGF; N-terminal VD
[9] = biological target: T1, NRP1; assay: flow cytometry on cells carrying the target, 2 ug/mL; C-terminal VD
[10] = biological target: T6, CD-19 (human, UniProt P15391 20-556); assay: as above
T6 construct: whole, on cells
T6 sequence (looked up): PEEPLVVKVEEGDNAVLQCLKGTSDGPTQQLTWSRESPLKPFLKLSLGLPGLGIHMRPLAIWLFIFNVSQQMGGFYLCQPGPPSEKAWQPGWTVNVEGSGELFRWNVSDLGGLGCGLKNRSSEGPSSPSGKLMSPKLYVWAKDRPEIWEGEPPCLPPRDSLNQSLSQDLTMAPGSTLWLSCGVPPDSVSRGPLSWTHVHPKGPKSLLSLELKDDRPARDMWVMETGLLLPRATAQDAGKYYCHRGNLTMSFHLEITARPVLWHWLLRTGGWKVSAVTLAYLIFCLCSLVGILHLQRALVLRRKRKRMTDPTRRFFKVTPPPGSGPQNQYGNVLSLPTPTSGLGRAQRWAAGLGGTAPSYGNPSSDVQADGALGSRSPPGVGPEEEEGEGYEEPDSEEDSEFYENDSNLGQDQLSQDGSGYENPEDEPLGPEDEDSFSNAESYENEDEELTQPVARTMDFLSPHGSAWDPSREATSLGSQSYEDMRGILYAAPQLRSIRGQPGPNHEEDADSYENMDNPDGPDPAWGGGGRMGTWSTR

B1: DVD042 (bispecific antibody, human IgG1, kappa)
heavy: QVQLVQSGAEVKKPGASVKVSCKASGYTFTSYDINWVRQATGQGLEWMGWMNPNSGNTGYAQKFQGRVTMTRNTSISTAYMELSSLRSEDTAVYYCARDPYYYYYGMDVWGQGTTVTVSSASTKGPEVQLVESGGGLVQPGGSLRLSCAASGYTFTNYGMNWVRQAPGKGLEWVGWINTYTGEPTYAADFKRRFTFSLDTSKSTAYLQMNSLRAEDTAVYYCAKYPHYYGSSHWYFDVWGQGTLVTVSS[omitted - human IgG1 constant region]
light: QSVLTQPPSVSAAPGQKVTISCSGSSSNIENNHVSWYQQLPGTAPKLLIYDNNKRPSGIPDRFSGSKSGTSATLGITGLQTGDEADYYCETWDTSLSAGRVFGGGTKLTVLGQPKAAPDIQMTQSPSSLSASVGDRVTITCSASQDISNYLNWYQQKPGKAPKVLIYFTSSLHSGVPSRFSGSGSGTDFTLTISSLQPEDFATYYCQQYSTVPWTFGQGTKVEIKRTVAAPSVFIFPPSDEQLKSGTASVVCLLNNFYPREAKVQWKVDNALQSGNSQESVTEQDSKDSTYSLSSTLTLSKADYEKHKVYACEVTHQGLSSPVTKSFNRGEC
notes: DVD-Ig; also called IGF1,2 / VEGF DVD-Ig; DVD042H
EC50 [1]: 2.5 nM
EC50 [2]: 17.6 nM

B3: DVD044 (bispecific antibody, human IgG1, kappa)
heavy: EVQLVESGGGLVQPGGSLRLSCAASGFTFTDNWISWVRQAPGKGLEWVGYISPNSGFTYYADSVKGRFTISADTSKNTAYLQMNSLRAEDTAVYYCARDNFGGYFDYWGQGTLVTVSSASTKGPEVQLVESGGGLVQPGGSLRLSCAASGYTFTNYGMNWVRQAPGKGLEWVGWINTYTGEPTYAADFKRRFTFSLDTSKSTAYLQMNSLRAEDTAVYYCAKYPHYYGSSHWYFDVWGQGTLVTVSS[omitted - human IgG1 constant region]
light: DIQMTQSPSSLSASVGDRVTITCRASQDVSTAVAWYQQKPGKAPKLLIYSASFLYSGVPSRFSGSGSGTDFTLTISSLQPEDFATTYYCQQSYTGTVTFGQGTKVEIKRTVAAPDIQMTQSPSSLSASVGDRVTITCSASQDISNYLNWYQQKPGKAPKVLIYFTSSLHSGVPSRFSGSGSGTDFTLTISSLQPEDFATYYCQQYSTVPWTFGQGTKVEIKRTVAAPSVFIFPPSDEQLKSGTASVVCLLNNFYPREAKVQWKVDNALQSGNSQESVTEQDSKDSTYSLSSTLTLSKADYEKHKVYACEVTHQGLSSPVTKSFNRGEC
notes: DVD-Ig; also called DLL4 / VEGF DVD-Ig; DVD044H
EC50 [4]: 4.2 nM
EC50 [5]: 0.06 nM

B7: DVD001 (bispecific antibody, human IgG1, kappa)
heavy: QVQLQQPGAELVKPGASVKMSCKASGYTFTSYNMHWVKQTPGRGLEWIGAIYPGNGDTSYNQKFKGKATLTADKSSSTAYMQLSSLTSEDSAVYYCARSTYYGGDWYFNVWGAGTTVTVSAASTKGPQVQLQQSGAELVRPGSSVKISCKASGYAFSSYWMNWVKQRPGQGLEWIGQIWPGDGDTNYNGKFKGKATLTADESSSTAYMQLSSLASEDSAVYFCARRETTTVGRYYYAMDYWGQGTSVTVSS[omitted - human IgG1 constant region]
light: QIVLSQSPAILSPSPGEKVTMTCRASSSVSYIHWFQQKPGSSPKPWIYATSNLASGVPVRFSGSGSGTSYSLTISRVEAEDAATYYCQQWTSNPPTFGGGTKLEIKRTVAAPDILLTQTPASLAVSLGQRATISCKASQSVDYDGDSYLNWYQQIPGQPPKLLIYDASNLVSGIPPRFSGSGSGTDFTLNIHPVEKVDAATYHCQQSTEDPWTFGGGTKLEIKRTVAAPSVFIFPPSDEQLKSGTASVVCLLNNFYPREAKVQWKVDNALQSGNSQESVTEQDSKDSTYSLSSTLTLSKADYEKHKVYACEVTHQGLSSPVTKSFNRGEC
notes: DVD-Ig; outer AB001 (CD-20), inner AB006 (CD-19); also called CD-20 and CD-19 DVD-Ig
FACS Geometric Mean C-terminal [10]: 161

Further lines, results first:

FACS Geometric Mean N-terminal [3]: 336
B2: DVD050 (bispecific antibody, human IgG1, kappa)
heavy: EVQLVESGGGLVQPGGSLRLSCAASGFSFSSEPISWVRQAPGKGLEWVSSITGKNGYTYYADSVKGRFTISADTSKNTAYLQMNSLRAEDTAVYYCARWGKKVYGMDVWGQGTLVTVSSASTKGPEVQLVESGGGLVQPGGSLRLSCAASGYTFTNYGMNWVRQAPGKGLEWVGWINTYTGEPTYAADFKRRFTFSLDTSKSTAYLQMNSLRAEDTAVYYCAKYPHYYGSSHWYFDVWGQGTLVTVSS[omitted - human IgG1 constant region]
light: DIQMTQSPSSLSASVGDRVTITCRASQSISSYLAWYQQKPGKAPKLLIYGASSRASGVPSRFSGSGSGTDFTLTISSLQPEDFATYYCQQYMSVPITFGQGTKVEIKRTVAAPDIQMTQSPSSLSASVGDRVTITCSASQDISNYLNWYQQKPGKAPKVLIYFTSSLHSGVPSRFSGSGSGTDFTLTISSLQPEDFATYYCQQYSTVPWTFGQGTKVEIKRTVAAPSVFIFPPSDEQLKSGTASVVCLLNNFYPREAKVQWKVDNALQSGNSQESVTEQDSKDSTYSLSSTLTLSKADYEKHKVYACEVTHQGLSSPVTKSFNRGEC
notes: DVD-Ig; also called NRP1 and VEGF DVD-Ig

EC50 [6]: 14.6 nM
EC50 [7]: 12.7 nM
B4: DVD596 (bispecific antibody, human IgG1, kappa)
heavy: EVQLVESGGGLVQPGGSLRLSCAASGYTFTNYGMNWVRQAPGKGLEWVGWINTYTGEPTYAADFKRRFTFSLDTSKSTAYLQMNSLRAEDTAVYYCAKYPHYYGSSHWYFDVWGQGTLVTVSSASTKGPQVQLQQSGAELVKPGASVKISCKASGYTFTDYYINWVKLAPGQGLEWIGWIYPGSGNTKYNEKFKGKATLTIDTSSSTAYMQLSSLTSEDTAVYFCVRDSPFFDYWGQGTLLTVSS[omitted - human IgG1 constant region]
light: DIQMTQSPSSLSASVGDRVTITCSASQDISNYLNWYQQKPGKAPKVLIYFTSSLHSGVPSRFSGSGSGTDFTLTISSLQPEDFATYYCQQYSTVPWTFGQGTKVEIKRTVAAPSVFIFPPDIVLTQSPDSLAVSLGERVTMNCKSSQSLLNSGMRKSFLAWYQQKPGQSPKLLIYWASTRESGVPDRFTGSGSGTDFTLTISSVQAEDVAVYYCKQSYHLFTFGSGTKLEIKRTVAAPSVFIFPPSDEQLKSGTASVVCLLNNFYPREAKVQWKVDNALQSGNSQESVTEQDSKDSTYSLSSTLTLSKADYEKHKVYACEVTHQGLSSPVTKSFNRGEC
notes: HC linker short, LC linker long; also called DVD596VH; DVD596VL

EC50 [8]: 4.8 nM
B5: DVD049 (bispecific antibody, human IgG1, kappa)
heavy: EVQLVESGGGLVQPGGSLRLSCAASGYTFTNYGMNWVRQAPGKGLEWVGWINTYTGEPTYAADFKRRFTFSLDTSKSTAYLQMNSLRAEDTAVYYCAKYPHYYGSSHWYFDVWGQGTLVTVSSASTKGPEVQLVESGGGLVQPGGSLRLSCAASGFSFSSEPISWVRQAPGKGLEWVSSITGKNGYTYYADSVKGRFTISADTSKNTAYLQMNSLRAEDTAVYYCARWGKKVYGMDVWGQGTLVTVSS[omitted - human IgG1 constant region]
light: DIQMTQSPSSLSASVGDRVTITCSASQDISNYLNWYQQKPGKAPKVLIYFTSSLHSGVPSRFSGSGSGTDFTLTISSLQPEDFATYYCQQYSTVPWTFGQGTKVEIKRTVAAPDIQMTQSPSSLSASVGDRVTITCRASQSISSYLAWYQQKPGKAPKLLIYGASSRASGVPSRFSGSGSGTDFTLTISSLQPEDFATYYCQQYMSVPITFGQGTKVEIKRTVAAPSVFIFPPSDEQLKSGTASVVCLLNNFYPREAKVQWKVDNALQSGNSQESVTEQDSKDSTYSLSSTLTLSKADYEKHKVYACEVTHQGLSSPVTKSFNRGEC
notes: DVD-Ig; also called VEGF / NRP1 DVD-Ig; DVD049H

FACS Geometric Mean C-terminal [9]: 352
B6: DVD049 (bispecific antibody, human IgG1, kappa)
heavy: B5 heavy
light: B5 light
notes: DVD-Ig; also called VEGF and NRP1 DVD-Ig
